Test results from the supplement of paper PMC12217912.
Some of the results follow. Sequences were assembled here from the parent chain. Inactive controls read about 0.05.

B1: TEV protease; numbered along this chain (parent)
chain: MGESLFKGPRDYNPISSSICHLTNESDGHTTSLYGIGFGPFIITNKHLFRRNNGTLVVQSLHGVFKVKDTTTLQQHLVDGRDMIIIRMPKDFPPFPQKLKFREPQREERICLVTTNFQTKSMSSMVSDTSCTFPSGDGIFWKHWIQTKDGQCGSPLVSTRDGFIVGIHSASNFTNTNNYFTSVPKNFMELLTNQEAQQWVSGWRLNADSVLWGGHKVFMVKPEEPFQPVKEATQL

Variants of: B1
Assay: raw area under fraction-flipped curve 0-4 h after induction (AUC4h, not background-subtracted), DNA-recorder readout of cleavage of the substrate (dimensionless); higher = more cleavage of the substrate by the protease variant
Conditions: temperature: 34 °C; time window: 0-4 h after rhamnose induction
Method: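 In vivo DNA recorder in E. coli TOP10(DE3) ΔrhaA at 34 °C. Each TEVp single-site mutant (parent TEVp 0) is paired with a single-site variant of the 7-mer TEVs (canonical ENLYFQ|S). The substrate sits between flexible linkers in a Bxb1-sfGFP-TEVs-SsrA fusion, so cleavage stabilises Bxb1 and speeds flipping of a recombination array, read by NGS. The value is the raw area under the fraction-flipped curve over 0-4 h after rhamnose induction (AUC4h), with ≥20 reads per time point. It is not background-subtracted; inactive controls average about 0.047.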
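Further: Bxb1 expression induced with 0.2% (w/v) L-rhamnose at OD600 near 0.5, cultures sampled hourly, flipped fraction per protease–substrate barcode pair counted by paired-end Illumina sequencing.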

Row | Variant | area with substrate ENLAFQS | area with substrate ENLCFQS | area with substrate ENLDFQS | area with substrate ENLEFQS | area with substrate ENLFFQS | area with substrate ENLHFQS | area with substrate ENLIFQS | area with substrate ENLKFQS | area with substrate ENLLFQS | area with substrate ENLMFQS | area with substrate ENLNFQS | area with substrate ENLPFQS | area with substrate ENLQFQS | area with substrate ENLRFQS | area with substrate ENLSFQS | area with substrate ENLTFQS | area with substrate ENLVFQS | area with substrate ENLWFQS | area with substrate ENLGFQS
1 | I43S | 0.0572 | 0.0497 | 0.0514 | 0.0586 | 0.0535 | 0.0387 | 0.0456 | 0.0564 | 0.0677 | 0.0553 | 0.0516 | 0.0346 | 0.0449 | 0.054 | 0.06 | 0.0407 |  |  | 
2 | I43N | 0.05 | 0.0448 | 0.0498 | 0.0427 | 0.046 | 0.0465 | 0.047 | 0.0468 |  |  | 0.0497 | 0.0661 | 0.055 | 0.045 | 0.0486 |  | 0.0407 | 0.0447 | 
3 | I43E | 0.0485 | 0.0491 | 0.0479 | 0.054 | 0.0483 |  | 0.0792 | 0.0434 | 0.0624 | 0.0063 | 0.0436 | 0.0536 | 0.0444 | 0.035 | 0.053 | 0.0377 |  |  | 0.0549
4 | I43A | 0.0626 |  | 0.0725 | 0.0633 | 0.0766 | 0.063 | 0.0604 |  | 0.0628 |  | 0.065 | 0.0605 | 0.0397 | 0.0572 | 0.0563 |  |  | 0.0448 | 0.0541
5 | I43Q | 0.0419 | 0.0619 | 0.0535 | 0.0477 | 0.0519 | 0.0406 | 0.0511 | 0.0526 | 0.0499 | 0.0466 | 0.0517 | 0.0507 | 0.0418 | 0.0486 | 0.0375 | 0.0417 | 0.0575 | 0.0478 | 
6 | I43L | 0.0753 | 0.0678 | 0.0648 | 0.0676 | 0.0872 | 0.0664 | 0.0822 | 0.0439 |  | 0.0616 | 0.0555 | 0.0586 |  | 0.0711 | 0.052 |  | 0.109 | 0.0659 | 0.0648
7 | K66L | 0.0751 | 0.0651 | 0.0672 |  | 0.0852 | 0.0645 | 0.0868 | 0.0919 |  |  | 0.0601 | 0.0688 | 0.0547 | 0.0814 | 0.0621 |  | 0.0766 | 0.0588 | 0.0782
8 | F65G | 0.072 | 0.0314 | 0.0597 | 0.0331 | 0.0762 | 0.0327 | 0.0744 | 0.0649 | 0.0608 |  | 0.0468 |  |  | 0.0507 |  |  |  |  | 
9 | G39E | 0.0484 | 0.0394 | 0.0501 | 0.0169 | 0.0501 | 0.0331 | 0.0405 | 0.0434 | 0.0506 | 0.0336 | 0.0271 | 0.0419 | 0.0417 |  |  | 0.0665 | 0.0634 |  | 
10 | G39I | 0.0354 |  |  | 0.0508 | 0.0425 |  | 0.0441 | 0.0639 | 0.0448 |  | 0.0464 | 0.0378 | 0.0275 | 0.0429 | 0.0373 |  | 0.0433 |  | 
11 | G39M | 0.0431 | 0.0449 | 0.0436 | 0.0438 | 0.0458 |  | 0.0429 | 0.0458 | 0.0448 |  | 0.0504 | 0.0364 | 0.0443 | 0.042 | 0.0223 |  | 0.0152 |  | 
12 | G39R | 0.0268 |  | 0.0434 | 0.0364 | 0.0343 | 0.0394 | 0.0325 | 0.0525 | 0.0534 | 0.0391 | 0.0484 | 0.0531 | 0.0501 | 0.0601 | 0.0343 |  |  |  | 0.0384
13 | K46C | 0.0602 | 0.0669 | 0.0639 | 0.0621 | 0.0783 |  | 0.0809 | 0.0688 |  |  | 0.0497 | 0.0534 | 0.033 | 0.0639 | 0.0604 |  | 0.0655 |  | 
14 | K46T | 0.059 |  | 0.0606 | 0.0582 | 0.0955 |  |  | 0.0626 | 0.0595 | 0.0634 | 0.082 | 0.0657 |  |  | 0.0594 |  | 0.0696 | 0.0603 | 0.0576
15 | K46A | 0.0785 | 0.0821 | 0.0781 | 0.0965 | 0.0967 | 0.069 |  | 0.0734 | 0.122 | 0.0736 | 0.0607 | 0.0589 | 0.0754 | 0.0821 | 0.0678 |  | 0.11 |  | 0.0693
16 | K46M | 0.0498 |  |  | 0.0652 | 0.0653 | 0.065 | 0.0461 | 0.069 | 0.0607 |  | 0.0646 | 0.0464 | 0.0566 | 0.0697 | 0.0478 |  | 0.0524 |  | 
17 | F38W | 0.0661 | 0.0803 | 0.0619 | 0.0608 | 0.0931 | 0.0681 | 0.0714 | 0.0697 | 0.105 | 0.0651 | 0.0687 | 0.0638 | 0.0654 | 0.0667 |  |  | 0.107 |  | 0.0806
18 | F38C | 0.0565 |  | 0.0612 | 0.0583 | 0.0933 | 0.0645 |  | 0.0594 | 0.0741 |  | 0.0643 | 0.052 | 0.0607 | 0.0679 | 0.0629 |  |  | 0.0686 | 0.0611
19 | F38Y | 0.0446 | 0.0639 | 0.0335 | 0.0655 | 0.0847 | 0.0684 | 0.0784 | 0.0926 |  |  | 0.092 | 0.0554 | 0.0523 | 0.0838 | 0.0691 |  |  | 0.0584 | 
20 | Q75F | 0.0612 | 0.0618 | 0.0679 | 0.0619 | 0.111 | 0.0654 | 0.0743 | 0.0908 | 0.08 | 0.0612 | 0.0696 | 0.0621 |  | 0.0505 | 0.0609 |  | 0.0807 |  | 
21 | T55S | 0.0697 | 0.0711 | 0.0678 | 0.114 | 0.0793 | 0.0661 | 0.0775 | 0.0662 |  | 0.0601 | 0.0717 |  |  | 0.0763 | 0.0655 |  | 0.0937 | 0.0806 | 0.0496
22 | S60K | 0.0685 | 0.0668 | 0.0662 |  | 0.0692 | 0.0205 |  |  |  | 0.0625 | 0.0584 |  | 0.0847 |  |  |  |  | 0.0612 | 
23 | S60H | 0.0667 | 0.0713 | 0.0739 | 0.0778 | 0.107 | 0.113 |  | 0.0867 | 0.0915 |  | 0.0556 |  | 0.0701 |  | 0.0543 |  | 0.117 | 0.0624 | 
24 | L73I | 0.0723 | 0.0764 | 0.0618 | 0.0668 | 0.0798 | 0.0747 | 0.0821 | 0.0742 | 0.0711 | 0.0699 | 0.0887 | 0.0665 | 0.0661 | 0.0797 | 0.0708 |  |  | 0.0697 | 0.0605
